Test results taken from the supplement of paper PMC3334620.
Over roughly 33,000 sequences, “E-score (-0.5 to 0.5)” has its median near -0.032; the highest 2% begin near 0.36. The list shows a part of the results.

Molecular target: T1, Sko1 (UniProt Q02100)
T1 sequence: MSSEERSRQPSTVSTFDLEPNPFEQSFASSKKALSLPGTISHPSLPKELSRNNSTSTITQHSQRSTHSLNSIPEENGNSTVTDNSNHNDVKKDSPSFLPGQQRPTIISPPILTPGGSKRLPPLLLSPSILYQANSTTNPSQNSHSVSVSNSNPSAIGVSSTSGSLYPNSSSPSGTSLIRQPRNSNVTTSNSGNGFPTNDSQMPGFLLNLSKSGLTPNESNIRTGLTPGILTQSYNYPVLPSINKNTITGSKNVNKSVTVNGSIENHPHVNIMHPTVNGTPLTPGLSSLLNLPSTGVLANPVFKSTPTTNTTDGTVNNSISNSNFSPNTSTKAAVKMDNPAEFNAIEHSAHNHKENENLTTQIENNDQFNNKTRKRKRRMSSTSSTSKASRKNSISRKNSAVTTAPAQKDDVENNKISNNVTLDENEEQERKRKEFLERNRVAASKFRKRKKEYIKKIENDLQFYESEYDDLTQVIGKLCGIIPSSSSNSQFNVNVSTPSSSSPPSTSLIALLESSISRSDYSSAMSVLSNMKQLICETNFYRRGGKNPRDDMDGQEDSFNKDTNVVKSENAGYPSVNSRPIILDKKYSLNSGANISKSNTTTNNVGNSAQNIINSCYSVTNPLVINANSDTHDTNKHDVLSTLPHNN
Test: PBM E-score (8-mer binding enrichment) (E-score (-0.5 to 0.5)); higher = stronger / more preferred TF binding; most listed sequences are background and not binding sites
Settings: protein concentration: 200 nM; construct: GST-full length
Summary of the method: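 Each ungapped eight-base word and its reverse complement, pooled, received an E-score from the Universal PBM Analysis Suite. Underlying scans, normalised with masliner, recorded fluorescent anti-GST bound to GST-tagged yeast transcription factors. These were applied at about 100-200 nM to universal all-10-mer Agilent arrays double-stranded by primer extension.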

Sequence	PBM E-score
ACGACGGG	0.0518
CTCATGCC	-0.102
CAGTAACC	-0.0392
ATTCCCCA	-0.19
GGTTATCA	-0.052
CTTCTGGC	-0.363
AACTTTGT	0.00157
CACGGGCA	-0.278
ATCACTTC	0.111
CCCTTAAC	-0.252
AGACCCTC	-0.264
CGTGGAAG	0.124
CGCCTTAA	0.00536
GGGGGACA	-0.317
GGACCTAA	-0.0906
GGTGTGGA	-0.149
CATTCACG	0.215
AGAGGTCA	-0.151
CGCCGTGA	-0.0474
CACGGGGC	-0.169
ATATAATA	0.207
GGGTAACA	-0.0351
CACGCGTC	0.291
CGCCATGC	0.104
CAGAATGA	0.0723

Sequence	PBM E-score
GAAATGAA	0.126
AACCATTG	0.15
ATCCTTGC	-0.0696
CCAAAGCA	-0.00167
AATTACCC	0.0055
CCAGAACC	-0.222
CCCTAGCA	-0.189
GCTCTGCC	-0.293
AGCTTGGG	-0.13
GGTTTGCA	-0.105
CGACGAAG	0.00357
CTATAGAC	-0.0761
GTGTAGAA	0.0421
ACTACCTA	0.0522
CATTGAGA	0.034
GGATTCCC	-0.405
GGGTTAAC	-0.0829
CAGCGTCA	0.269
CCAGGTCA	-0.26
AGCAAACA	0.00884
AATCTGAT	0.0711
TGGCTCAA	-0.135
CCTCTTAC	-0.0892
CGTTCAAA	-0.0617
CATTGCGA	0.101

Sequence	PBM E-score
AGTTCCTG	-0.15
ACCAGTTA	0.158
CGCTGTCA	-0.194
AGTGTCTC	-0.206
CCGTTTAA	-0.0451
AATCCTCG	-0.0997
GATGTTGC	0.0584
ACAGACTC	-0.0949
CACCCACG	0.178
ATATGGCA	0.0018
GCTGCCAA	-0.131
CACACAGG	-0.101
AAATCGTA	0.285
GAATGGTA	0.0925
ATGGCAAC	0.0982
GTGTGTGA	0.116
GTTCTTCA	0.0119
CACTGCAC	-0.016
AGTTCTTG	0.081
CGGAATAA	-0.128
ATGGTAAA	0.0877
AAGATCGT	0.0795
CTTTTTAC	0.152
CAGGGTCG	-0.241
AAAGATCC	-0.0977

Sequence	PBM E-score
AGGTTCCG	-0.138
CTCTTTTA	-0.0323
TGCACAAA	0.0452
AGCCATAC	-0.073
CCCGGATC	-0.251
AAGGGGGG	-0.5
ACTAGGGC	-0.211
ATCCAAAG	0.0661
CGCCGCCG	-0.179
GTCCTAAC	0.055
CACAGCGC	-0.197
CAATCGTA	0.285
CGGTCTAG	-0.108
GGAGGGCA	-0.175
CAATTTCA	0.0986
AAAATACG	0.343
GACTCTAC	-0.108
ATGGATGC	-0.134
CAGTACTG	0.115
ATTAACCG	-0.0199
TACTGGAA	0.0304
AAGTTAGG	-0.0273
ACTCCATC	-0.145
AGTGTCAG	-0.267
CTTAGGGA	-0.272

Sequence	PBM E-score
ACTCGTCA	0.404
TTCGACAA	0.0777
ACTTCCCC	-0.0883
CTAGCACA	-0.291
ACGTGCAT	0.396
CCCCAACG	0.0631
CGAGTAAC	0.172
GTGTATCA	0.153
GGACCCTA	-0.273
GCTGCGGA	-0.103
CAGCACAC	-0.136
ACAACAAG	0.0637
ACATGCCC	-0.199
AGGTCTAA	-0.0802
ACAATCGC	-0.0302
ACCACGGT	-0.183
CCCGTAGA	-0.331
AAATATGT	0.276
CAAGTCCG	-0.236
AAAATACT	0.213
ATATTCAG	0.00522
CCCACCAG	-0.148
ATGAGTCA	0.125
AATCAGGG	-0.33
ACGGGACG	-0.129

Sequence	PBM E-score
GTCAGCGA	-0.0508
ATGAATTG	0.0345
GCACCCCA	-0.0797
TGTGAACA	-0.0972
CATCGTAC	0.136
GTCGACAC	0.0499
TACGTAAA	0.484
GTGTTGGA	0.0951
CACCTTAA	-0.0499
CGGGTCAA	-0.142
CCAGCCCC	-0.186
TGGTCAAA	0.154
AATTATGG	0.122
CAATAGAC	0.0384
ATCCCTAC	0.106
GAGAGGGA	-0.189
CCGTTAGG	-0.227
AGGCCAAT	-0.0526
AGCTAACA	-0.0839
ACATCCCA	-0.191
GACGCCCA	-0.0504
AACTAAGG	-0.0496
CGACCCTC	-0.344
GGCTTTGA	-0.0738
AAGGCGTG	-0.111

Sequence	PBM E-score
GAGAAGCA	-0.214
CTAATAAA	0.177
AGGCGAAC	0.0973
CAAGCTAG	-0.118
CGCGACGA	0.125
AGGTCGCC	-0.245
AGAGTAGA	-0.0272
CAAACACA	0.226
CACGTTCC	0.00159
ATGAAGCG	-0.28
ACCGGTTC	-0.276
CATCTAGC	-0.0817
TGGGTCAA	-0.0732
CTTTATTA	0.214
CATCCGCA	0.153
CGACGACG	0.19
AAACTTAT	0.256
AGGCAAGA	-0.0215
ATCTCTTC	-0.00254
ACTCGCGC	-0.122
CGAAAATA	0.191
GAGAGTTA	-0.0408
